Reference: the supplement of paper PMC8728848
The list shows a part of the results.

How the values were obtained:
Test in all cases: glycan array binding signal (z-score within array); higher = stronger binding
Conditions in all cases: glycan notation: IUPAC condensed, linker removed
[1] = target: GlcNAc(b1-2)[GlcNAc(b1-4)]Man(a1-3)[GlcNAc(b1-4)][GlcNAc(b1-2)[GlcNAc(b1-6)]Man(a1-6)]Man(b1-4)GlcNAc(b1-4)GlcNAc
Procedure, shortened: (§1)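 The binding signal is a Z-score computed within each array and averaged over linkers. Arrays of the same protein sequence at different concentrations or buffers were also averaged together. Data originate from 3228 arrays in the Consortium for Functional Glycomics database, kept only where the protein sequence was available.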

[2] = target: GlcNAc(b1-2)[GlcNAc(b1-4)]Man(a1-3)[GlcNAc(b1-4)][GlcNAc(b1-2)[GlcNAc(b1-6)]Man(a1-6)]Man(b1-4)GlcNAc(b1-4)[Fuc(a1-6)]GlcNAc
Procedure, shortened: as §1

[3] = target: GlcNAc(b1-2)[GlcNAc(b1-6)]Man(a1-6)[GlcNAc(b1-2)Man(a1-3)]Man(b1-4)GlcNAc(b1-4)GlcNAc
Procedure, shortened: as §1

[4] = target: GlcNAc(b1-2)[GlcNAc(b1-6)]Man(a1-6)[GlcNAc(b1-2)Man(a1-3)]Man(b1-4)GlcNAc(b1-4)[Fuc(a1-6)]GlcNAc
Procedure, shortened: as §1

[5] = target: GlcNAc(b1-2)[GlcNAc(b1-6)]Man(a1-6)[GlcNAc(b1-4)][GlcNAc(b1-2)Man(a1-3)]Man(b1-4)GlcNAc(b1-4)GlcNAc
Procedure, shortened: as §1

GlcNAc(b1-3)Fuc = target: GlcNAc(b1-3)Fuc
Procedure, shortened: as §1

GlcNAc(b1-3)Gal = target: GlcNAc(b1-3)Gal
Procedure, shortened: as §1

[6] = target: GlcNAc(b1-3)Gal(b1-3)GalNAc
Procedure, shortened: as §1

GlcNAc(b1-3)Gal(b1-4)Glc = target: GlcNAc(b1-3)Gal(b1-4)Glc
Procedure, shortened: as §1

[7] = target: GlcNAc(b1-3)Gal(b1-4)GlcNAc
Procedure, shortened: as §1

[8] = target: GlcNAc(b1-3)Gal(b1-4)GlcNAc(b1-2)Man(a1-3)[GlcNAc(b1-3)Gal(b1-4)GlcNAc(b1-2)Man(a1-6)]Man(b1-4)GlcNAc(b1-4)GlcNAc
Procedure, shortened: as §1

[9] = target: GlcNAc(b1-3)Gal(b1-4)GlcNAc(b1-2)Man(a1-3)[GlcNAc(b1-3)Gal(b1-4)GlcNAc(b1-2)Man(a1-6)]Man(b1-4)GlcNAc(b1-4)[Fuc(a1-6)]GlcNAc
Procedure, shortened: as §1

[10] = target: GlcNAc(b1-3)Gal(b1-4)GlcNAc(b1-2)[GlcNAc(b1-3)Gal(b1-4)GlcNAc(b1-6)]Man(a1-6)[GlcNAc(b1-3)Gal(b1-4)GlcNAc(b1-2)Man(a1-3)]Man(b1-4)GlcNAc(b1-4)GlcNAc
Procedure, shortened: as §1

[11] = target: GlcNAc(b1-3)Gal(b1-4)GlcNAc(b1-3)Gal(b1-4)GlcNAc
Procedure, shortened: as §1

[12] = target: GlcNAc(b1-3)Gal(b1-4)GlcNAc(b1-3)Gal(b1-4)GlcNAc(b1-2)Man(a1-3)[GlcNAc(b1-3)Gal(b1-4)GlcNAc(b1-3)Gal(b1-4)GlcNAc(b1-2)Man(a1-6)]Man(b1-4)GlcNAc(b1-4)GlcNAc
Procedure, shortened: as §1

[13] = target: GlcNAc(b1-3)Gal(b1-4)GlcNAc(b1-3)Gal(b1-4)GlcNAc(b1-2)Man(a1-3)[GlcNAc(b1-3)Gal(b1-4)GlcNAc(b1-3)Gal(b1-4)GlcNAc(b1-2)Man(a1-6)]Man(b1-4)GlcNAc(b1-4)[Fuc(a1-6)]GlcNAc
Procedure, shortened: as §1

[14] = target: GlcNAc(b1-3)Gal(b1-4)GlcNAc(b1-3)Gal(b1-4)GlcNAc(b1-2)[GlcNAc(b1-3)Gal(b1-4)GlcNAc(b1-3)Gal(b1-4)GlcNAc(b1-6)]Man(a1-6)[GlcNAc(b1-3)Gal(b1-4)GlcNAc(b1-3)Gal(b1-4)GlcNAc(b1-2)Man(a1-3)]Man(b1-4)GlcNAc(b1-4)[Fuc(a1-6)]GlcNAc
Procedure, shortened: as §1

[15] = target: GlcNAc(b1-3)Gal(b1-4)GlcNAc(b1-3)Gal(b1-4)GlcNAc(b1-3)Gal(b1-4)GlcNAc(b1-2)Man(a1-3)[GlcNAc(b1-3)Gal(b1-4)GlcNAc(b1-3)Gal(b1-4)GlcNAc(b1-3)Gal(b1-4)GlcNAc(b1-2)Man(a1-6)]Man(b1-4)GlcNAc(b1-4)GlcNAc
Procedure, shortened: as §1

[16] = target: GlcNAc(b1-3)Gal(b1-4)GlcNAc(b1-3)Gal(b1-4)GlcNAc(b1-3)Gal(b1-4)GlcNAc(b1-2)Man(a1-3)[GlcNAc(b1-3)Gal(b1-4)GlcNAc(b1-3)Gal(b1-4)GlcNAc(b1-3)Gal(b1-4)GlcNAc(b1-2)Man(a1-6)]Man(b1-4)GlcNAc(b1-4)[Fuc(a1-6)]GlcNAc
Procedure, shortened: as §1

[17] = target: GlcNAc(b1-3)Gal(b1-4)GlcNAc(b1-3)Gal(b1-4)GlcNAc(b1-3)Gal(b1-4)GlcNAc(b1-2)[GlcNAc(b1-3)Gal(b1-4)GlcNAc(b1-3)Gal(b1-4)GlcNAc(b1-3)Gal(b1-4)GlcNAc(b1-6)]Man(a1-6)[GlcNAc(b1-3)Gal(b1-4)GlcNAc(b1-3)Gal(b1-4)GlcNAc(b1-3)Gal(b1-4)GlcNAc(b1-2)Man(a1-3)]Man(b1-4)GlcNAc(b1-4)[Fuc(a1-6)]GlcNAc
Procedure, shortened: as §1

[18] = target: GlcNAc(b1-3)Gal(b1-4)GlcNAc(b1-3)Gal(b1-4)GlcNAc(b1-3)Gal(b1-4)GlcNAc(b1-3)Gal(b1-4)GlcNAc(b1-2)Man(a1-3)[GlcNAc(b1-3)Gal(b1-4)GlcNAc(b1-3)Gal(b1-4)GlcNAc(b1-3)Gal(b1-4)GlcNAc(b1-3)Gal(b1-4)GlcNAc(b1-2)Man(a1-6)]Man(b1-4)GlcNAc(b1-4)GlcNAc
Procedure, shortened: as §1

[19] = target: GlcNAc(b1-3)Gal(b1-4)GlcNAc(b1-3)Gal(b1-4)GlcNAc(b1-3)Gal(b1-4)GlcNAc(b1-3)Gal(b1-4)GlcNAc(b1-2)Man(a1-3)[GlcNAc(b1-3)Gal(b1-4)GlcNAc(b1-3)Gal(b1-4)GlcNAc(b1-3)Gal(b1-4)GlcNAc(b1-3)Gal(b1-4)GlcNAc(b1-2)Man(a1-6)]Man(b1-4)GlcNAc(b1-4)[Fuc(a1-6)]GlcNAc
Procedure, shortened: as §1

[20] = target: GlcNAc(b1-3)Gal(b1-4)GlcNAc(b1-3)Gal(b1-4)GlcNAc(b1-3)Gal(b1-4)GlcNAc(b1-3)Gal(b1-4)GlcNAc(b1-2)[GlcNAc(b1-3)Gal(b1-4)GlcNAc(b1-3)Gal(b1-4)GlcNAc(b1-3)Gal(b1-4)GlcNAc(b1-3)Gal(b1-4)GlcNAc(b1-6)]Man(a1-6)[GlcNAc(b1-3)Gal(b1-4)GlcNAc(b1-3)Gal(b1-4)GlcNAc(b1-3)Gal(b1-4)GlcNAc(b1-3)Gal(b1-4)GlcNAc(b1-2)Man(a1-3)]Man(b1-4)GlcNAc(b1-4)[Fuc(a1-6)]GlcNAc
Procedure, shortened: as §1

[21] = target: GlcNAc(b1-3)Gal(b1-4)GlcNAc(b1-3)Gal(b1-4)GlcNAc(b1-3)GalNAc
Procedure, shortened: as §1

[22] = target: GlcNAc(b1-3)Gal(b1-4)GlcNAc(b1-3)GalNAc
Procedure, shortened: as §1

[23] = target: GlcNAc(b1-3)Gal(b1-4)GlcNAc(b1-3)[GlcNAc(b1-3)Gal(b1-4)GlcNAc(b1-3)]GalNAc
Procedure, shortened: as §1

[24] = target: GlcNAc(b1-3)Gal(b1-4)GlcNAc(b1-6)[Gal(b1-3)]GalNAc
Procedure, shortened: as §1

[25] = target: GlcNAc(b1-3)Gal(b1-4)GlcNAc(b1-6)[GlcNAc(b1-3)Gal(b1-3)]GalNAc
Procedure, shortened: as §1

[26] = target: GlcNAc(b1-3)Gal(b1-4)GlcNAc(b1-6)[GlcNAc(b1-3)]Gal(b1-4)GlcNAc
Procedure, shortened: as §1

GlcNAc(b1-3)GalNAc = target: GlcNAc(b1-3)GalNAc
Procedure, shortened: as §1

GlcNAc(b1-3)Man = target: GlcNAc(b1-3)Man
Procedure, shortened: as §1

[27] = target: GlcNAc(b1-3)[GlcNAc(b1-4)][GlcNAc(b1-6)]GlcNAc
Procedure, shortened: as §1

[28] = target: GlcNAc(b1-3)[GlcNAc(b1-6)]Gal(b1-4)GlcNAc
Procedure, shortened: as §1

[29] = target: GlcNAc(b1-3)[GlcNAc(b1-6)]GalNAc
Procedure, shortened: as §1

[30] = target: GlcNAc(b1-4)Gal(b1-4)GlcNAc
Procedure, shortened: as §1

GlcNAc(b1-4)GlcNAc = target: GlcNAc(b1-4)GlcNAc
Procedure, shortened: as §1

[31] = target: GlcNAc(b1-4)GlcNAc(b1-4)GlcNAc
Procedure, shortened: as §1

[32] = target: GlcNAc(b1-4)GlcNAc(b1-4)GlcNAc(b1-4)GlcNAc(b1-4)GlcNAc
Procedure, shortened: as §1

B1: Cohesin-marm-DC-ASGPR (protein)
chain: LDITSHHHHHHDDLDAVRIKVDTVNAKPGDTVRIPVRFSGIPSKGIANCDFVYSYDPNVLEIIEIEPGDIIVDPNPDKSFDTAVYPDRKIIVFLFAEDSGTGAYAITKDGVFATIVAKVKEGAPNGLSVIKFVEVGGFANNDLVEQKTQFFDGGVNVGDTTEPATPTTPVTTPTTTDDLDAASSKFQRDLVTLRTDFSNFTSNTLAEIQALTSQGSSLQETIASLKAEVEGHKQELQAGASELQEHNKQKAHLGRCPHTCVCPSSFVCVPVHSEILLRVQQLVQDLNKLSCQVAILKNNATTERTCCPINWVEHQGSCYWFSRSGKTWPEAERYCQLENTHLVVINSREEQNFVQAHLGSAYTWMGLSDPEGVWKWVDGTDYSSGFQNWKPGQPDDWQGHGLGGGEDCAHFHPDGRWNDDVCQRSYHWVCEAGLTQASQDSHAS
glycan array binding signal (z-score) [1]: -0.302
glycan array binding signal (z-score) [2]: -0.313
glycan array binding signal (z-score) [3]: -0.297
glycan array binding signal (z-score) [4]: -0.298
glycan array binding signal (z-score) [5]: -0.311
glycan array binding signal (z-score) (GlcNAc(b1-3)Fuc): -0.311
glycan array binding signal (z-score) (GlcNAc(b1-3)Gal): -0.306
glycan array binding signal (z-score) [6]: -0.296
glycan array binding signal (z-score) (GlcNAc(b1-3)Gal(b1-4)Glc): -0.31
glycan array binding signal (z-score) [7]: -0.297
glycan array binding signal (z-score) [8]: -0.311
glycan array binding signal (z-score) [9]: -0.259
glycan array binding signal (z-score) [10]: -0.292
glycan array binding signal (z-score) [11]: -0.304
glycan array binding signal (z-score) [12]: -0.228
glycan array binding signal (z-score) [13]: -0.288
glycan array binding signal (z-score) [14]: -0.306
glycan array binding signal (z-score) [15]: -0.279
glycan array binding signal (z-score) [16]: -0.266
glycan array binding signal (z-score) [17]: -0.307
glycan array binding signal (z-score) [18]: -0.105
glycan array binding signal (z-score) [19]: 0.086
glycan array binding signal (z-score) [20]: -0.306
glycan array binding signal (z-score) [21]: -0.31
glycan array binding signal (z-score) [22]: -0.306
glycan array binding signal (z-score) [23]: -0.306
glycan array binding signal (z-score) [24]: -0.291
glycan array binding signal (z-score) [25]: -0.306
glycan array binding signal (z-score) [26]: -0.309
glycan array binding signal (z-score) (GlcNAc(b1-3)GalNAc): -0.287
glycan array binding signal (z-score) (GlcNAc(b1-3)Man): -0.289
glycan array binding signal (z-score) [27]: -0.287
glycan array binding signal (z-score) [28]: -0.313
glycan array binding signal (z-score) [29]: -0.291
glycan array binding signal (z-score) [30]: -0.283
glycan array binding signal (z-score) (GlcNAc(b1-4)GlcNAc): -0.284
glycan array binding signal (z-score) [31]: -0.3
glycan array binding signal (z-score) [32]: -0.277
